Source: PubChem BioAssay AID686978 (National Center for Advancing Translational Sciences (NCATS), 2013)
In all, about 420,000 compounds went through this assay and about 64,000 (15%) were called active. This list was built around the results that the source calls inconclusive (neither active nor inactive); the mix of calls is not that of the screen. Calls come from the whole dose curve; as a rule, active = well fitted inhibition curve with a large enough effect; inconclusive = small, poorly fitted or top-dose-only effect; inactive = flat fitted curve, though single readings scatter. Potencies of inconclusive entries are left out as doubtful fits.

Assay: qHTS for Inhibitors of human tyrosyl-DNA phosphodiesterase 1 (TDP1): qHTS in cells in absence of CPT; note: nearly all actives have a fitted effect of over 55% in size
Conditions: DT40 Tdp1-/- hTDP1 cells, no CPT, ATP luminescence, 48 h; activity change, negative = growth inhibition: at 46.2 µM (top of the series) unless noted
Procedure, shortened: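 Cells were dispensed at 400 per well, compounds added by pin tool, plates incubated ≥48 hr at 37 °C, then CellTiter-Glo added for 30 min at room temperature before luminescence reading. Line: DT40 Tdp1-/- complemented with hTDP1; camptothecin omitted.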
% is set by controls: 0 for no effect and ±100 for the full control effect; potency is the fitted concentration of half-maximal effect; tags give direction and shape of the fitted curve.

Row | Compound | activity change, negative = growth inhibition | Potency
1 | CSc1ccc(/C=C2/C(=N)N3N=C(CC(=O)N4CCCC4)SC3=NC2=O)cc1 | inactive: 12% | 
2 | CCN(CCCNC(=O)c1cc(Nc2ccc(OC)cc2)nc2ccccc12)c1cccc(C)c1 |  | active: 20.6 µM
3 | CN(C(=O)CSc1nnnn1C)C1(C#N)CCCCC1 | inactive: 7.66% | 
4 | O=C(OC1CCOC1=O)c1cc(-c2ccc(Br)cc2)nc2ccccc12 (stereo not drawn) | inactive: -18% | 
5 | COc1cc(OC)c2c(=O)c(OC)c(-c3ccc(OC)c(OC)c3)oc2c1 |  | inconclusive [inhibitor, single point]
6 | COc1ccccc1N1CCN(Cc2cc(Br)c(O)c3ncccc23)CC1 |  | active: 9.2 µM
7 | CCn1nc(C)c(CN2CCCC(CO)(Cc3ccccc3)C2)c1C (stereo not drawn) | inconclusive: -30.7% [inhibitor] | 
8 | COc1ccc(NC(=O)Nc2cc(C)cc(C)c2)cn1 |  | inconclusive [inhibitor, single point]
9 | CCN(CC)CCCN(C(=O)c1ccco1)c1nc(-c2ccc(Cl)cc2)cs1 |  | inconclusive [inhibitor, single point]
10 | COc1ccc(CCNC(=O)CCN2C(=O)COc3ccc(C)cc32)cc1OC |  | inconclusive [inhibitor, single point]
11 | O=C(COC(=O)Cc1ccc(F)cc1)NCCc1ccccc1 | inactive: 2% | 
12 | Cc1c(C)c2ccc(OC(C)C(=O)NCCCN3CCOCC3)c(C)c2oc1=O (stereo not drawn) | inactive: 18.7% | 
13 | Cc1cccc(C)c1NC(=O)Cn1c(=O)n(Cc2ccccc2Cl)c(=O)c2cccnc21 |  | inconclusive [inhibitor, full curve]
14 | NC1(c2ccc(-c3nc4ccn5c(=O)[nH]nc5c4cc3-c3ccccc3)cc2)CCC1 |  | active: 0.596 µM
15 | COCCN(C(=S)Nc1ccccc1OC)C(C)c1cccs1 (stereo not drawn) |  | active: 29.1 µM
16 | N#CCCN(C(=O)CSc1ccc2c(c1)OCCO2)c1ccc(F)cc1 |  | inconclusive [inhibitor, single point]
17 | O=c1[nH]c(=O)n(C2OC(CO)C(O)C2O)cc1F (stereo not drawn) |  | active: 0.0366 µM
18 | COc1ccc(-n2nc(C(=O)Nc3ccc(C)cn3)c3c4ccccc4n(C)c3c2=O)cc1Cl | inactive: -4.28% | 
19 | COc1ccccc1-c1noc(CCCC(=O)Nc2ccc(C(N)=O)cc2)n1 | inactive: 1.7% | 
20 | CCOc1ccc(S(=O)(=O)Nc2cccc(Cl)c2)cc1 |  | inconclusive [inhibitor, partial curve, poor fit]
21 | CN(C)c1nc(NCc2ccccc2)nc(N/N=C/c2ccc(Cl)cc2Cl)n1 |  | inconclusive [inhibitor, single point]
22 | O=C(Nc1cccc(C(F)(F)F)c1)c1cccnc1NCCc1ccccc1 |  | active: 16.4 µM
23 | Cc1ccc(-n2c(=O)[nH]c3cc(C(=O)NCCc4ccccc4)ccc3c2=O)cc1 | inactive: -24.9% | 
24 | COc1ccc(C(CNC(=O)c2cccc(S(=O)(=O)Nc3ccccc3OC)c2)N2CCCC2)cc1 (stereo not drawn) |  | inconclusive [inhibitor, single point]
25 | Cc1cccn2c(=O)c3cc(C(=O)NCCc4ccccc4)sc3nc12 |  | inconclusive [inhibitor, single point]

Row | Compound | activity change, negative = growth inhibition | Potency
26 | O=C(Nc1ccccc1)Nc1cccn(Cc2c(F)cccc2Cl)c1=O |  | inconclusive [inhibitor, partial curve, poor fit]
27 | CCCNC(=O)CCc1cc(C(C)(C)C)c(O)c(C(C)(C)C)c1 |  | inconclusive [inhibitor, partial curve, poor fit]
28 | COc1cc(NC(=O)C2CCN(c3nnc(C)c4c(C)n(-c5ccccc5)nc34)CC2)cc(OC)c1 |  | inconclusive [inhibitor, single point]
29 | Cc1ccc2c(C)c(C(=O)NCC(c3ccc(Cl)cc3)N3CCOCC3)oc2c1 (stereo not drawn) |  | active: 11.6 µM
30 | O=C(c1cc(-c2ccc(Cl)cc2)on1)N1CCCCCC1 |  | inconclusive [inhibitor, single point]
31 | Cc1ccc2c(c1)c(=O)c1ccccc1n2CCCC(=O)Nc1ccc(Cl)cc1C |  | inconclusive [inhibitor, full curve]
32 | O=C(N/C=N/OCc1ccc(Cl)cc1Cl)NOCc1c(Cl)cccc1Cl |  | active: 23.1 µM
33 | CC(C)(C)N(Cc1cc2ccccc2[nH]c1=O)C(=O)c1cccc([N+](=O)[O-])c1 | inactive: -13.1% | 
34 | O=C(c1cccnc1)N(Cc1ccccc1)C(c1ccccc1)c1nc2ccccc2[nH]1 (stereo not drawn) |  | inconclusive [inhibitor, single point]
35 | COc1cc([N+](=O)[O-])ccc1NC(=O)COC(=O)CCOc1ccc(C)cc1 |  | active: 6.51 µM
36 | O=C(Cc1cn(Cc2cccc(Cl)c2)c2ccccc12)N1CCCC1 |  | inconclusive [inhibitor, single point]
37 | Cc1cc(S(=O)(=O)NC(=O)[C@H]2O[C@@H](n3cnc4c(N)ncnc43)[C@H](O)[C@@H]2O)ccc1Br | inactive: -25.9% | 
38 | Cc1nn(CC(O)COc2ccc3c(c2)CCC3)c(C)c1Br (stereo not drawn) |  | inconclusive [inhibitor, single point]
39 | C[C@H]1[C@H](c2ccccc2)C[C@@H](C(=O)O)C1(C)C | inactive: 1.52% | 
40 | CCN1C(=O)N[C@@H](c2cccc(F)c2)C(C(C)=O)=C1C | inactive: -22.4% | 
41 | Cc1ccc(NC(=O)Cn2c(=O)n(CCCCC(=O)NCc3ccco3)c(=O)c3ccccc32)cc1 |  | active: 14.6 µM
42 | Cc1cccc(N(C(=O)c2ccco2)C(C(=O)NC2CCCC2)c2ccco2)c1C (stereo not drawn) | inactive: -23.2% | 
43 | O=C(OCc1ccccc1C(F)(F)F)c1ccc(Br)c(S(=O)(=O)N2CCOCC2)c1 |  | inconclusive [inhibitor, single point]
44 | CCOC(=O)C1=C(C)N=C2SCCC(=O)N2[C@@H]1/C=C/c1ccccc1 | inactive: -9.34% | 
45 | O=[N+]([O-])c1cc2c(cc1CN1CCN(c3ccccc3F)CC1)OCO2 | inactive: 8.4% | 
46 | NC(=O)c1ccc(N2CCNC(=O)C2)c([N+](=O)[O-])c1 | inactive: 15.5% | 
47 | CCC(C(=O)Nc1ccc(C(C)C)cc1)c1ccccc1 (stereo not drawn) |  | inconclusive [inhibitor, single point]
48 | CCc1cc2c(=O)c(-c3nc4ccccc4n3C)coc2c(CN2CCCCC2)c1O |  | inconclusive [inhibitor, partial curve, poor fit]
49 | CN(C)CC(C)(C)CNS(=O)(=O)c1ccc(OC(F)(F)F)cc1 | inactive: -10.7% | 
50 | O=C(COc1ccc(Cl)cc1)Nc1cccc(-c2ccc(N3CCOCC3)nn2)c1 |  | inconclusive [inhibitor, single point]

Row | Compound | activity change, negative = growth inhibition | Potency
51 | COc1ccc(CN(CC2CCC(C(=O)O)CC2)C(=S)Nc2cccc(C)c2)cc1 (stereo not drawn) | inactive: -16.5% | 
52 | S=C(NCC1CCCO1)Nc1ccc(Nc2ccccc2)cc1 (stereo not drawn) |  | inconclusive [inhibitor, partial curve]
53 | CC[C@]12c3[nH]c4ccc(Cl)cc4c3CCN1C(=O)[C@@H](CC(=O)NCCCOC)C[C@@H]2C(=O)N1CCN(C(=O)c2ccco2)CC1 |  | inconclusive [inhibitor, single point]
54 | Cc1nn(-c2ccccc2)c2sc(C(=O)N3CCCCC3)cc12 |  | inconclusive [inhibitor, single point]
55 | COc1ccc(/C=C(\NC(=O)c2ccc([N+](=O)[O-])cc2)C(=O)N2CCOCC2)cc1 | inactive: -12.2% | 
56 | COC(=O)Cc1ccc(NC(=S)NCc2ccc(S(N)(=O)=O)cc2)cc1 | inactive: -17% | 
57 | Cc1ccccc1CSc1nnc(CCCCCNC(=O)OC(C)(C)C)o1 |  | inconclusive [inhibitor, single point]
58 | CC(C)C[C@H](NC(=O)c1nc[nH]c1C(=O)N[C@@H](CC(C)C)C(=O)OC(C)(C)C)C(=O)OC(C)(C)C |  | inconclusive [inhibitor, single point]
59 | COc1cc2oc3ccccc3c2cc1N(CC(=O)N(C)C)S(=O)(=O)c1ccc(C)cc1 | inactive: -5.26% | 
60 | C[C@H](CO)N1C[C@H](C)[C@@H](CN(C)CC2CCOCC2)Oc2cc(C#Cc3ccccc3F)ccc2S1(=O)=O |  | active: 9.2 µM
61 | COCCN1C[C@@H](CO)O[C@@H](n2cnc3c(N(C)C)ncnc32)C1 | inactive: 0.194% | 
62 | Cn1ccc2c(-c3ccc(F)cc3F)cc3c(c21)C1CCC3C1 (stereo not drawn) |  | inconclusive [inhibitor, partial curve]
63 | Cn1c(CN2CCCCC2)nc2cc(NC(=O)c3ccc(Cl)cc3)ccc21 |  | inconclusive [inhibitor, partial curve]
64 | CC(=O)Nc1ccc(NC(=O)CN(C)S(=O)(=O)c2ccc3c(c2)CCC(=O)N3)cc1 | inactive: 3.04% | 
65 | Cc1cc(C)cc(C(=O)Nn2cnnc2)c1 | inactive: -2.3% | 
66 | Cc1ccc(-n2c(C)cc(C3N=C(N)Nc4nc5ccccc5n43)c2C)c(C)c1 (stereo not drawn) |  | active: 23.1 µM
67 | c1cc2c(cc1-c1cnc3n1CCC3)OCCO2 |  | inconclusive [inhibitor, single point]
68 | COC(=O)c1c(-c2ccc(C(C)(C)C)cc2)csc1NC(=O)C1C2CCC(O2)C1C(=O)O (stereo not drawn) |  | inconclusive [inhibitor, single point]
69 | COC(=O)c1ccc(/C=N\NC(=O)c2c(C)nc3ccc(Cl)cn23)cc1 |  | active: 10.3 µM
70 | Cc1ccc2[nH]c3c(=O)n(CC(=O)N(C)Cc4ccccc4)ncc3c2c1 |  | inconclusive [inhibitor, single point]
71 | Cc1ccc2[nH]c(=O)c(CN(Cc3cccnc3)C(=O)c3ccncc3)cc2c1 |  | active: 20.6 µM
72 | O=C(Nc1ccccc1)Nc1nc(-c2ccc(F)c(F)c2)cs1 |  | active: 2.91 µM
73 | CCCOc1ccc(C(=O)OCC(=O)c2c(N)n(C)c(=O)n(C)c2=O)cc1OCC |  | inconclusive [inhibitor, partial curve]
